# Measured values reported in publication doi:10.1101/2019.12.31.876946 (bioRxiv, 2019).
# B1: recombinant human tau isoform 1N3R (natural protein)
# chain: not shown
# Target: the molecule itself
# Experiment: thioflavin T fluorescence aggregation assay
protein,measurement,value
B1,t1/2 of aggregation (ThT fluorescence),4.3 h
